Results as given in PubChem BioAssay AID504832 (National Center for Advancing Translational Sciences (NCATS), 2011).
Out of some 310,000 compounds screened, about 18,000 (5.8%) were called active. The shares of active, inactive and inconclusive entries below differ from those in the screen. Calls follow the shape of the dose curve; as a rule, active = well fitted inhibition curve with a large enough effect; inconclusive = small, poorly fitted or top-dose-only effect, or another doubt; inactive = no such curve, though single readings can be large or run the other way. No potency is given beside an inconclusive call; the fits are too rough.

Assay: Primary qHTS for delayed death inhibitors of the malarial parasite plastid, 48 hour incubation
Details: P. falciparum luciferase growth in erythrocytes; series mostly up to 28.7 µM
In short: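 A one-generation exposure of luciferase-tagged malaria parasites in RPMI 1640/Albumax erythrocyte culture, 37 C and 5% CO2. Inhibition is inferred from decreased luminescence after adding detection reagent.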
Potency is read from the fitted curve at half-maximal effect; tags tell the direction and shape of the fitted curve.

Row | Structure (SMILES) | Potency
1 | O=C1CC(N2CCN(S(=O)(=O)c3ccc(Cl)cc3)CC2)C(=O)N1CCc1ccccc1 (configuration not stated) | inconclusive [inhibitor, single point]
2 | O=S(=O)(Nc1ccc(Cl)cn1)c1ccc2c(c1)OCCO2 | inactive
3 | CC(C)NS(=O)(=O)c1ccc(OCC(=O)Nc2ccc3c(c2)OCO3)cc1 | inactive
4 | CCCc1cnc(N2CCN(C(=O)c3ccc(OC)cc3)CC2)nc1 | inconclusive [inhibitor, partial curve, poor fit]
5 | CN=C(Nc1ccccc1OC)SC1CC(=O)N(c2ccc(C(=O)OC)cc2)C1=O (configuration not stated) | inconclusive [inhibitor, single point]
6 | Cc1ccc(OCCOc2cccc3ccc(C)nc23)c([N+](=O)[O-])c1 | inconclusive [inhibitor, single point]
7 | CCOC(=O)C1(CCOc2ccccc2)CCN(Cc2nccn2CC)CC1 | inconclusive [inhibitor, partial curve, poor fit]
8 | N#C/C(=C\C=C\c1ccccc1)C(=O)NCc1cccnc1 | inconclusive [inhibitor, single point]
9 | CCOC(=O)C1CCN(Cc2ccccc2C(F)(F)F)CC1 | inactive
10 | Cc1cc(C(F)(F)F)nc(SCC(=O)NC2CC3CCC2C3)n1 (configuration not stated) | inactive
11 | N#CC1=C(N)OC2=C(C(=O)CC(c3ccco3)C2)C1c1ccc(OCc2c(F)cccc2Cl)cc1 (configuration not stated) | inconclusive [inhibitor, full curve, poor fit]
12 | Cc1ccc(S(=O)(=O)CCC(=O)N(Cc2nnc(-c3ccc(Cl)cc3)o2)C2CC2)cc1 | inconclusive [inhibitor, partial curve, poor fit]
13 | O=C1CSC(c2ccccn2)N1c1ccc(F)cc1F (configuration not stated) | inconclusive [inhibitor, single point]
14 | Cc1ccc(C[n+]2ccccc2)cc1 | active: 9.28 µM
15 | Cn1c(=O)c2ncn(CC(=O)NCCOc3ccccc3)c2n(C)c1=O | inactive
16 | COc1ccc(Cl)cc1C(=O)C1CCCN(Cc2cnc(C)s2)C1 (configuration not stated) | inconclusive [inhibitor, single point]
17 | Cc1ccc2cccc(OCCCOc3ccccc3CO)c2n1 | inconclusive [inhibitor, full curve, poor fit]
18 | CC(C)(C)NC(=O)C(c1ccncc1)N(Cc1ccc(F)cc1)C(=O)c1ccc(-c2ccccc2)[nH]1 (configuration not stated) | inconclusive [inhibitor, partial curve, poor fit]
19 | CN(C)S(=O)(=O)c1ccc(C(=O)NNC(=O)c2ccccc2-n2cccc2)cc1 | inconclusive [inhibitor, single point]
20 | Cc1cc(C)c(-n2c(SCc3nc4ccccc4s3)n[nH]c2=O)c(C)c1 | inconclusive [inhibitor, partial curve]
21 | Cc1c(C(=O)Nc2nccs2)oc2c(Cl)cccc12 | inconclusive [inhibitor, single point]
22 | CCn1ncc(C(=O)Nc2ccc(S(=O)(=O)N3CCCC3)cc2)c1C | inconclusive [inhibitor, full curve, poor fit]
23 | CN(CCOc1ccc(C=C2C(=O)NC(=O)NC2=O)cc1)c1ccccn1 | inactive

Row | Structure (SMILES) | Potency
24 | COc1cccc2c1Oc1ncccc1N(C(=O)CCC(=O)NCc1ccccc1)C2 | inconclusive [inhibitor, partial curve]
25 | COc1cccc(-c2ncc3ccccc3c2COC(=O)N2CCCCC2)c1 | inconclusive [inhibitor, partial curve]
26 | Cc1nn(C)c(C)c1/C=C/C(=O)O | inactive
27 | COc1ccc(-c2[nH]ncc2CN(C)C(C)c2cccs2)c(F)c1 (configuration not stated) | inactive
28 | CN1C(C(=O)NCc2ccco2)CC2Cn3c(nc4cc5ccccc5cc43)C21 (configuration not stated) | inactive
29 | O=C(OCC(=O)N1CCCC1=O)c1ccc(Cl)cc1[N+](=O)[O-] | inactive
30 | Cc1ccc(C)c(N2CCN(C(=O)CCCn3c(=O)c4cccn4c4cccnc43)CC2)c1 | inconclusive [inhibitor, partial curve, poor fit]
31 | NC(=O)c1cc([N+](=O)[O-])ccc1NCc1ccc(N)cc1 | inconclusive [inhibitor, single point]
32 | CCNC(=O)C(=O)N1CCC2(CC1)OCCN2S(=O)(=O)c1ccc(C)cc1 | inconclusive [inhibitor, partial curve, poor fit]
33 | NC(=O)c1ccc(C(F)(F)F)n(Cc2cccc(Cl)c2)c1=O | inconclusive [inhibitor, partial curve, poor fit]
34 | COc1nc(-c2ccccc2)ccc1-c1noc(-c2ccco2)n1 | inactive
35 | Cc1nn2c(NCCN(C)C)c3c(nc2c1-c1ccccc1)CCCC3 | inconclusive [inhibitor, partial curve, poor fit]
36 | Cc1ccccc1OCC(=O)NCC1CCCO1 (configuration not stated) | inactive
37 | CC(=O)NCCn1c(SCC(=O)Nc2ccc(C)cc2)nc2ccccc2c1=O | inactive
38 | CC(Sc1nc(N)c2c3c(sc2n1)CSC(C)(C)C3)C(=O)Nc1ccccc1 (configuration not stated) | inconclusive [inhibitor, single point]
39 | Cc1ccccc1N=C(NOCc1ccccc1)c1nonc1N | inconclusive [inhibitor, single point]
40 | CCN(c1ccccc1)S(=O)(=O)c1ccc(OC)c(N=N/C(C(=O)Nc2ccccc2)=C(/C)O)c1 | inconclusive [inhibitor, partial curve]
41 | Cc1cc(C)cc(N(CCC(=O)Nc2nnc(C)s2)S(=O)(=O)c2ccc(Cl)cc2)c1 | inconclusive [inhibitor, single point]
42 | COc1cc2[nH]c(=O)n(CCCCCC(=O)NC3CCCC3)c(=O)c2cc1OC | inconclusive [inhibitor, partial curve]
43 | O=C(NC1CCCCC1)NC1CCN(C(=S)NCc2ccco2)CC1 | inconclusive [inhibitor, single point]
44 | CSc1nc2ccccc2cc1/C=C(\C#N)c1cccc(C)c1 | inconclusive [inhibitor, single point]
45 | CCC(C)(C)n1nnnc1C(C(C)C)N(Cc1ccco1)Cc1cc2cc3c(cc2[nH]c1=O)OCO3 (configuration not stated) | inconclusive [inhibitor, partial curve]
46 | O=C(NCCC1=CCCCC1)C1CCC(CNc2c(N3CCCC3)c(=O)c2=O)CC1 (configuration not stated) | inconclusive [inhibitor, partial curve]

Row | Structure (SMILES) | Potency
47 | Cn1cc(C(=O)Cc2ccccc2)c2ccccc21 | inactive
48 | COc1ccc(S(=O)(=O)N2CCOCC2)cc1NC(=O)CCCOc1ccc(Cl)cc1C | inconclusive [inhibitor, single point]
49 | CCCc1c(C(=O)NNc2cccc(Cl)c2)cnn1-c1ccccc1 | inactive
50 | O=C(NCCCc1ccccc1)C1CCC(CNc2c(N3CCCCC3)c(=O)c2=O)CC1 (configuration not stated) | inconclusive [inhibitor, single point]
51 | CCOCCCNS(=O)(=O)c1ccc(-n2cnnn2)c(OC)c1 | inactive
52 | CCN(CC)C1CCCCC1NS(=O)(=O)c1ccc(Cl)cc1 (configuration not stated) | inactive
53 | CCOC(=O)c1sc(NC(=O)CCN2C(=O)C3CCCCC3C2=O)cc1C (configuration not stated) | active: 14.7 µM
54 | CCN(CC(=O)Nc1c(F)cccc1F)C(=O)CCSc1ccc(C)cc1 | inconclusive [inhibitor, partial curve, poor fit]
55 | O=C(c1ccc([N+](=O)[O-])cc1)N1CCSC1c1ccccc1Cl (configuration not stated) | inconclusive [inhibitor, partial curve, poor fit]
56 | COc1ccc(CCNC(=O)CNC(=O)c2nn(-c3ccc(OC)c(OC)c3)c(=O)c3ccccc23)cc1OC | active: 9.28 µM
57 | CC1CCN(c2nc(-c3ccco3)c3c(c2C#N)CC(C)(C)OC3)CC1 | inconclusive [inhibitor, partial curve, poor fit]
58 | COc1ccc(C(=O)NC2CCN(Cc3c(F)cccc3Cl)CC2)cc1OC | inactive
59 | CCN(CC)C(=O)CSc1nc2ccc(NC(=O)CSc3nnc(COc4ccccc4C)n3C)cc2s1 | inconclusive [inhibitor, full curve, poor fit]
60 | CCOC(=O)C(CC)/C(C)=N\NC(=O)CCC(=O)Nc1ccc(Cl)cc1Cl (configuration not stated) | inactive
61 | CCc1ccc(S(=O)(=O)/N=C2\C=C(Nc3cccc(C(=O)O)c3)C(=O)c3ccccc32)cc1 | active: 1.65 µM
62 | Cc1nc(N2CCOCC2)c2c(C)c(C(=O)Nc3ccccc3C(F)(F)F)sc2n1 | inconclusive [inhibitor, partial curve, poor fit]
63 | O=C(NCCc1c[nH]c2ccccc12)C1CCN(S(=O)(=O)c2ccccc2F)CC1 | inconclusive [inhibitor, single point]
64 | COc1ccc(S(=O)(=O)N(CC(=O)NCc2ccco2)c2ccccc2OC)cc1 | inconclusive [inhibitor, partial curve, poor fit]
65 | COc1ccc(N2C=C3C(=O)C(C)(OC(=O)CCc4ccccc4)C(=O)C=C3C=C2c2ccc(C#N)cc2)cc1 (configuration not stated) | inconclusive [inhibitor, single point]
66 | CC(=O)Nc1ccc2c(c1)OCO2 | inactive
67 | CCOc1ccc(-c2c(=O)n(OCc3ccccn3)c3ccccc3[n+]2[O-])cc1 | inconclusive [inhibitor, single point]
